Common to all, as to test: Primary Screen for Target Class Profiling of Small Molecule Inhibitors of Methyltransferases
In test [1] the target is Glycine N-methyltransferase (Homo sapiens) (UniProt Q14749). Conditions: purified enzyme, MTase-Glo SAH luminescence; measured here: GNMT inhibition; at 40 µM; stronger effect = lower value. Summed up:
(§1)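 Each enzyme was assayed with SAM and its substrate. SAH formation detected by MTase-Glo luminescence; single-point 40 uM screen[…].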

For test [2], the target named is Guanidinoacetate N-methyltransferase (Homo sapiens) (UniProt Q14353). Conditions: purified enzyme, MTase-Glo SAH luminescence; measured here: GAMT inhibition; at 40 µM; stronger effect = lower value. The procedure, abridged: as §1
Test [3] concerns the target Histamine N-methyltransferase (Homo sapiens) (UniProt P50135). The note with it: purified enzyme, MTase-Glo SAH luminescence; measured here: HNMT inhibition; at 40 µM; stronger effect = lower value. The procedure, abridged: as §1
Test [4] deals with Nicotinamide N-methyltransferase (Homo sapiens) (UniProt P40261). The note with it: purified enzyme, MTase-Glo SAH luminescence; measured here: NNMT inhibition; at 40 µM; stronger effect = lower value. The procedure, abridged:
as §1

Test [5] has as its target Phenylethanolamine N-methyltransferase (Homo sapiens) (UniProt P11086). Conditions: purified enzyme, MTase-Glo SAH luminescence; measured here: PNMT inhibition; at 40 µM; stronger effect = lower value. The procedure, abridged:
as §1

This is one part of the list. Shown are side measurements of this screen, not its main read-out; they come without a call.
On the % scale 0 is the no-effect control and ±100 the full control effect.

With `Cc1ccc(-c2ccc3ncc4c(c3n2)n(C2CCN(C(=O)[C@H](C)O)CC2)c(=O)n4C)cn1`, the activity change, negative = inhibition in test [1] was -42.9%; in test [2] it was -15.6%; in test [3] it was -41.8%; in test [4], -31.7%; in test [5] it was -30.9%.

As for `Cc1ccc(N2C(=O)c3cc4occc4n3CC2(C)C(=O)NC2CCC(C)CC2)cc1C` (stereo not drawn), the activity change, negative = inhibition in test [1] was -7.22%; in test [2] it was 2.81%; in test [3], -0.45%; in test [4], 0.064%; in test [5], -6.19%.

`Cc1nc2c3ccccc3n3c(CCCC(=O)NCCCOC(C)C)nnc3n2n1`: the activity change, negative = inhibition in test [1] is -8.91%; in test [2] it was 0%; in test [3], 2.71%; in test [4], 10.4%; in test [5], -3.39%.

For the compound `CC1(C(=O)NCc2ccccc2)Cn2c(cc3ccccc32)C(=O)N1Cc1ccc(Cl)cc1` (stereo not drawn), the activity change, negative = inhibition in test [1] is -1.39%; in test [2], 0%; in test [3] it was 3.15%; in test [4], 0.747%; in test [5] it was -2.61%.

For the compound `CN(C)[C@@H]1CN(C(=O)CCc2ccccc2)C[C@H]1CO`, the activity change, negative = inhibition in test [1] was -3.77%; in test [2], -6.75%; in test [3] it was -2.22%; in test [4] it was -6.67%; in test [5], -4.73%.

`COc1cccc(Nc2ncnn3ccc(CN4CC[C@@H](N)[C@H](O)C4)c23)c1`: the activity change, negative = inhibition was -12.9% in test [1]; -13.2% in test [2]; -9.83% in test [3]; -25.3% in test [4]; -14.8% in test [5].

For `Cc1ccccc1C(C(=O)NC1CCCCC1)N(C(=O)CNc1ccc(C#N)cc1)c1cccc(F)c1` (stereo not drawn), the activity change, negative = inhibition was -1.58% in test [1]; -19.2% in test [2]; 5.11% in test [3]; -28.8% in test [4]; -4.86% in test [5].

For the compound `C[C@@H]1C[C@H]2[C@@H]3CCC4=CC(=O)C=C[C@]4(C)[C@@]3(F)[C@@H](O)C[C@]2(C)[C@@]1(O)C(=O)COP(=O)(O)O`, the activity change, negative = inhibition in test [1] is -4.55%; in test [2], -0.213%; in test [3], 6.47%; in test [4], -8.01%; in test [5], 0.694%.

As for `O=C(CCCc1nc2ccccc2s1)N1CCc2nc3cc(-c4ccccc4)[nH]n3c(=O)c2C1`, the activity change, negative = inhibition in test [1] was -19.6%; in test [2], -6.51%; in test [3], -8.67%; in test [4], -14.1%; in test [5] it was -13.2%.

Regarding `OCCN1CCN(c2ccc(-c3nc(-c4cccc(C(F)(F)F)c4)no3)cn2)CC1`, the activity change, negative = inhibition in test [1] is -3.76%; in test [2], 2.51%; in test [3] it was -2.28%; in test [4] it was -7.72%; in test [5], -2.25%.

Turning to `Cn1c2c(c3ccccc31)C(C(=O)NCc1ccc(F)cc1)N(Cc1ccc(Cl)cc1)C(=O)CS2` (stereo not drawn), the activity change, negative = inhibition was determined as 0.446% in test [1]; 0% in test [2]; 8.67% in test [3]; 4.23% in test [4]; 6.27% in test [5].

Consider `Cc1cccc(CC(=O)N2CCc3c2ccc(-c2cn(C)c4ncnc(N)c24)c3F)n1`, for which the activity change, negative = inhibition in test [1] was -25.5%; in test [2], -4.95%; in test [3] it was -5.14%; in test [4], -29.2%; in test [5], -19.9%.

`N#Cc1cnc2cnc(NCc3cccnc3)cc2c1Nc1ccc(F)c(Cl)c1`: the activity change, negative = inhibition in test [1] was -86.2%; in test [2], -65.9%; in test [3], -80.9%; in test [4], -70.9%; in test [5], -80.1%.

For `COc1cccc(CN2C(=O)c3ccc(-c4ccco4)n3CC2(C)C(=O)NCc2ccccc2)c1OC` (stereo not drawn), the activity change, negative = inhibition was found to be 0.973% in test [1]; 0.776% in test [2]; 6.62% in test [3]; 5.5% in test [4]; 2.57% in test [5].

In the case of `Cc1ccc(NS(=O)(=O)c2cc3c(cc2NCCO)NC(=O)CC3)cc1C`, the results for the activity change, negative = inhibition in test [2], in test [4] and in test [5] were 7.39%, -10.5% and -3.99%, respectively.

Take `NO`: the activity change, negative = inhibition in test [1] was -10.9%; in test [2], 2.19%; in test [3] it was 0.76%; in test [4], -3.81%; in test [5] it was 3.56%.

`CSCCC(=O)N1CCc2[nH]nc(-c3ccc(C(F)(F)F)cc3)c2C1`: the activity change, negative = inhibition in test [1] is -5.8%; in test [2], -2.19%; in test [3], -8.06%; in test [4] it was -12.7%; in test [5], -3.08%.

Take `CC(C)CCn1c(=O)c2ccccc2n2c(SCC(=O)Nc3ccc4c(c3)OCO4)nnc12`: the activity change, negative = inhibition in test [1] is 0.343%; in test [2] it was 0.069%; in test [3], 6.96%; in test [4] it was -4.31%; in test [5] it was 1.24%.

Regarding `Cn1cccc1CN1CCC(N2CCNC2=O)CC1`, the activity change, negative = inhibition in test [1] is -3.6%; in test [2], -3.38%; in test [3], -1.02%; in test [4], -11.2%; in test [5], 1.75%.

For the compound `Cc1ccc(C(=O)Cn2nc3n(C(C)C)c(=O)c4ccc(C(=O)NC5CCCC5)cc4n3c2=O)cc1`, the activity change, negative = inhibition in test [1] was -3.59%; in test [2], -10.3%; in test [3] it was 2.57%; in test [4], -6.7%; in test [5], -4.92%.

As for `CNC(=O)c1ccc2c(C(=Nc3cccc(CN(C)C)c3)c3ccccc3)c(O)[nH]c2c1`, the activity change, negative = inhibition in test [1] is -32.8%; in test [2], -2.52%; in test [3], -92.7%; in test [4] it was -31.6%; in test [5] it was -19.1%.

As for `CC1(C(=O)NC2CCCCC2)Cn2c(cc3ccccc32)C(=O)N1Cc1cccnc1` (stereo not drawn), the activity change, negative = inhibition in test [1] is -3.04%; in test [2], 4.52%; in test [3] it was 1.1%; in test [4] it was 4.75%; in test [5] it was -0.303%.

Regarding `CCCN1C(=O)c2cc(C(=O)NCC)nn2CC1(C)C(=O)NC1CCCC1` (stereo not drawn), the activity change, negative = inhibition was 1.42% in test [1]; 4.72% in test [2]; 0.733% in test [3]; -1.18% in test [4]; -1.4% in test [5].

As for `Cc1ccc(N2C(=O)c3cc4occc4n3CC2(C)C(=O)NC2CCCCCCC2)cc1C` (stereo not drawn), the activity change, negative = inhibition is -2.81% in test [1]; 4.15% in test [2]; 2.91% in test [3]; 3.24% in test [4]; -2.64% in test [5].

As for `COc1cc(/C=C/C(=O)OC(C)(C)C(OC2OC(CO)C(O)C(O)C2O)C(=O)OCc2ccc(OC3OC(CO)C(O)C(O)C3O)cc2)ccc1O` (stereo not drawn), the activity change, negative = inhibition in test [1] was 1.45%; in test [2], 6.96%; in test [3], 9.48%; in test [4] it was -4.67%; in test [5], 7.99%.

For the compound `CCc1cc(=O)n(CC(=O)NCc2ccc(OC)c(OC)c2)c(-c2ccccc2)n1`, the activity change, negative = inhibition is -7.04% in test [1]; -5.58% in test [2]; -0.318% in test [3]; -15.7% in test [4]; -4.92% in test [5].

As for `CC(C)OCCCn1c(=O)c2ccccc2n2c(=O)n(CC(=O)NCc3ccccc3)nc12`, the activity change, negative = inhibition in test [1] was 3.86%; in test [2], 2.39%; in test [3], 6.83%; in test [4] it was 3.01%; in test [5], 3.87%.

With `CCN(CCc1nc2ccc(C)cc2[nH]1)C(=O)c1ccccc1C1CCNC1` (stereo not drawn), the activity change, negative = inhibition was -2.18% in test [1]; -3.67% in test [2]; -89.6% in test [3]; -9.72% in test [4]; -4.34% in test [5].

Consider `Fc1ccccc1CN1CCOC[C@H](Oc2cccnc2)C1`, for which the activity change, negative = inhibition in test [1] is -0.005%; in test [2], -5.2%; in test [3], 1.35%; in test [4], 1.19%; in test [5], -1.51%.

As to `COc1cc(SC)ccc1C(=O)N[C@H]1CCN2C(=O)[C@@H](CC(=O)O)NC(=O)[C@@H]2C1`, the activity change, negative = inhibition was -0.325% in test [1]; 1.07% in test [2]; 2.76% in test [3]; 2.23% in test [4]; 1.76% in test [5].

`Cc1noc(C)c1Cc1ccc(C(=O)N2CCCCCCNC(=O)[C@@H]3CCCC[C@@H]32)o1`: the activity change, negative = inhibition in test [1] was -1.78%; in test [2], 7.05%; in test [3] it was 0.669%; in test [4], -2.63%; in test [5] it was -1.48%.

Consider `CC(C)[C@H](CO)Nc1nc(Nc2ccc(C(=O)O)c(Cl)c2)c2ncn(C(C)C)c2n1`, for which the activity change, negative = inhibition was 2.99% in test [1]; 1.41% in test [2]; 9.6% in test [3]; -7.32% in test [4]; 6.47% in test [5].

For `COc1ccc(F)cc1-c1ccc(CN2CCC(NC(=O)c3ccc(Cl)cc3)C2)cc1` (stereo not drawn), the activity change, negative = inhibition in test [1] is -4.27%; in test [2], -2.33%; in test [3], -9.47%; in test [4], -11.1%; in test [5], -9.6%.

On to `CCOC(=O)c1cc2n(n1)CC(C)(C(=O)NCc1ccccc1)N(CCc1ccccc1)C2=O` (stereo not drawn), for which the activity change, negative = inhibition was 1.04% in test [1]; 4.86% in test [2]; 1.93% in test [3]; -3.96% in test [4]; -2.96% in test [5].

Turning to `N#Cc1cccc(N2CCN(Cc3ccc(F)c(Cl)c3F)CC2)n1`, the activity change, negative = inhibition is -8.15% in test [1]; -5.26% in test [2]; -4.1% in test [3]; -11% in test [4]; -19.4% in test [5].

`CCNC(=O)[C@@H]1C[C@H](NC(=O)c2ccc(CO)o2)CN1Cc1nccs1`: the activity change, negative = inhibition in test [1] was -2.44%; in test [2], 1.97%; in test [3] it was 2.56%; in test [4], -0.619%; in test [5] it was 11.1%.

Take `CC1=C(C(=O)Nc2ccccc2)C(c2cc(C)ccc2C)N2C(CC(=O)NC(C)C)=CSC2=N1` (stereo not drawn): the activity change, negative = inhibition in test [1] was -7.44%; in test [2], -3.9%; in test [3], -4.67%; in test [4] it was -4.99%; in test [5], -11.4%.

On to `CC1(C)SC2C(NC(=O)[C@H](C(=O)O)c3ccsc3)C(=O)N2C1C(=O)O` (stereo partly drawn), for which the activity change, negative = inhibition in test [1] was 1.53%; in test [2] it was 8.39%; in test [3], 4.66%; in test [4], -7.86%; in test [5] it was 0.767%.

(Values after PubChem BioAssay AID1745853 (National Center for Advancing Translational Sciences (NCATS), 2022).)
